In publication PMC4336329 (PLoS ONE, 2015):
Screen size: about 310,000 compounds; about 14,000 (4.5%) showed an effect of 50% or more. Effects have a minus sign here. The list shows a part of the results.

Target: human ether-à-go-go-related gene (hERG) potassium channel (human, UniProt Q12809)
Experiment: primary screen, population patch clamp on CHO cells stably expressing hERG
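Further: peak tail current of the secondary pulse compared with the same well before compound.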

human ether-à-go-go-related gene (hERG) potassium channel, sequence (Q12809 whole entry, looked up): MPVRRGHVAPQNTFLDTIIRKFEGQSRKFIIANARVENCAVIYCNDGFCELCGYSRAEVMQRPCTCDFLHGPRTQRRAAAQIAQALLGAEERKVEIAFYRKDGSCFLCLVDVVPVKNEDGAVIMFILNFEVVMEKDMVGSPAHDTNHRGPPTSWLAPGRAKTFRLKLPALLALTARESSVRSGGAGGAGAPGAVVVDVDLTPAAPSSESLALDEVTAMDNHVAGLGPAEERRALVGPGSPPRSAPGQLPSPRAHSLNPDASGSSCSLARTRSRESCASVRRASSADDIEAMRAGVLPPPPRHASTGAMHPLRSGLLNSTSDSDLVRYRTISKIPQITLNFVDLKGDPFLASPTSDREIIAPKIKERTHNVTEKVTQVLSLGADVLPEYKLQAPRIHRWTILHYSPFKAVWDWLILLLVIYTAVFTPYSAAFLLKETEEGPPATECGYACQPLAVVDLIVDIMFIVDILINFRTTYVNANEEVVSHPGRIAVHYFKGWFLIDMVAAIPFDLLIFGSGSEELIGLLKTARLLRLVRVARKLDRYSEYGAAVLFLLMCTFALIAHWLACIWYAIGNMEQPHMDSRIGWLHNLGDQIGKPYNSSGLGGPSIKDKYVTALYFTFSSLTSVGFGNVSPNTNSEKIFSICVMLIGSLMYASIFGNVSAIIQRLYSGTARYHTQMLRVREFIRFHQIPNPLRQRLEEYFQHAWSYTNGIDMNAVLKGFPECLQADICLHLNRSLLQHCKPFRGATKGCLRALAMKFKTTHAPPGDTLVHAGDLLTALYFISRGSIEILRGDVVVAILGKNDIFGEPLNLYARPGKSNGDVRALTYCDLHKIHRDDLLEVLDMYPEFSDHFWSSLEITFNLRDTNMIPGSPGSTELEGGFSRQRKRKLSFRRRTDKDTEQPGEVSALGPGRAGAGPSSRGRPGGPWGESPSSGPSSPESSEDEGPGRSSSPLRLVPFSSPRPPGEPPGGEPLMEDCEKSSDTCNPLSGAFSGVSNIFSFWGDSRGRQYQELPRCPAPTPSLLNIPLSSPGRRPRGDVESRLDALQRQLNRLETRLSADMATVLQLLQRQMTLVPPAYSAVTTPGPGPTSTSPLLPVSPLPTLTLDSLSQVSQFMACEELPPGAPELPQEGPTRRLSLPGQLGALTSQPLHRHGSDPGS

SMILES | hERG current change (%, negative = inhibition) at 10uM [%]
Cc1ccc(Sc2ccc(CN3CCCC3)cc2[N+](=O)[O-])cc1 | -83
CCc1ccc(-c2nc(CSCC(=O)NC3CC3)c(C)o2)cc1 | -20.6
Cc1noc(NS(=O)(=O)c2ccc(NC(=O)c3cc(=O)c4ccccc4o3)cc2)c1C | -9.46
COc1ccc(S(=O)(=O)N2CCCC2C(=O)Nn2cnnc2)cc1 (centres unmarked) | 18.2
Cc1ccccc1NC(=O)/C(C#N)=C/c1ccsc1 | 4.32
CC(=O)c1ccc(N2CCN(C(=O)c3cc(-c4ccncc4)nc4ccc(Br)cc34)CC2)cc1 | -42
CSc1ccc(/C=C/C(=O)OCC(=O)NC(C)C)cc1 | 10.6
O=C(/C=C/c1cccc([N+](=O)[O-])c1)NCCSCc1ccco1 | -29.5
COCc1cc(C)nc(NCCO)c1C#N | 4.28
COc1ccccc1C(=O)O/N=C(/C)c1ccc(N2C(=O)C3CCCCC3C2=O)cc1 (centres unmarked) | 7.57
CC(C)C(c1nnnn1Cc1cccs1)N1CCN(C2CCCC2)CC1 (centres unmarked) | -30.9
CCCN1CCC(=O)N(CCSc2ccc(OC)cc2)CC1 | -45.4
CCOc1ccc(CCNC(=O)C2CSC3(C)CCC(=O)N23)cc1OCC (centres unmarked) | 18.5
C[C@H](NC(=O)N1CCC(Cc2ccccc2)CC1)C(=O)O | 15.5
Cc1ccc(S(=O)(=O)Nc2ccc3cn[nH]c3c2)cc1 | -15.8
Cc1nc2ccccc2c(=O)n1-c1cccc(O)c1 | 14.1
O=C(N/N=C/c1cccc2nccnc12)c1ccncc1 | 0.676
CC(C)(C)NC(=O)C(c1cccs1)N(C(=O)c1csnn1)c1cccc(F)c1 (centres unmarked) | -7.68
Cc1ccc(OCc2cc(C(=O)N(C)CCc3ccccn3)no2)cn1 | 8.86
O=C(O)C1C2CCC(C2)C1C(=O)Nc1ccc(Cl)c(Cl)c1 (centres unmarked) | 5.43
C=CCc1ccc(OCCCCNC(C)CC)c(OC)c1.O=C(O)C(=O)O (centres unmarked) | -39.3
O=C(COC(=O)c1cc[n+]([O-])cc1)Nc1ccc(Cl)cc1[N+](=O)[O-] | 15.6
CCOc1ccccc1N1CCN(Cc2c(C)n(C)n(-c3ccccc3)c2=O)CC1 | -20.5

SMILES | hERG current change (%, negative = inhibition) at 10uM [%]
O=S(=O)(c1cccc(Br)c1)N1CCN(c2ccnc3cc(Cl)ccc23)CC1 | 8.43
CS(=O)(=O)N(CC(=O)N1CCCCC1)c1ccc(Cl)c(C(F)(F)F)c1 | -3.01
COc1ccc(C2(O)C(=O)Nc3ccc(C)cc32)cc1OC (centres unmarked) | 12.8
Cn1c(=O)c(C(=O)CSc2nnc(Nc3ccccc3)s2)c(N)n(Cc2ccccc2)c1=O | 14.1
Cc1ccc(NC(=O)C2CC(=O)Nc3ncnn32)cc1Cl (centres unmarked) | -0.0498
O=S(=O)(c1ccc(Br)cc1)N1CCn2c(nc3ccccc32)C1 | -7.4
O=C(Nc1ccc2nc(SCc3ccc(Cl)cc3)sc2c1)c1ccccc1C(=O)N1CCOCC1 | 21.9
Cc1ccc(S(=O)(=O)N2CCCCC2)cc1NC(=O)CSc1ccc2c(c1)OCCO2 | -9.32
CSc1nc(C)c2c(n1)N(c1ccc(C(F)(F)F)cc1)CC2 | -3.22
Cc1ccc(C(=O)Nc2ccc(F)cc2F)o1 | 6.04
CCCC(=O)N1CCC(CCC(=O)NC2CC2)CC1 | 7.63
CC(C)C(C(=O)NC1CCCC1)N(Cc1ccco1)C(=O)CNS(=O)(=O)c1ccccc1 (centres unmarked) | 26.3
Cc1cc(NC(=O)Nc2cccc(Cl)c2)n(-c2ccccc2)n1 | 18.7
CCc1ccc(CCC(=O)Nc2ccc(C(=O)O)cc2)o1 | 10.2
CC(=O)N1CCC(N(CCN2CCOCC2)C(=S)Nc2c(C)cccc2C)CC1 | 8.51
Cc1ccc(N=Nc2c(=O)[nH]n3c(=O)cc(C)[nH]c23)cc1 | 22.3
O=[N+]([O-])c1ccc(N2CCSCC2)cc1O | 9.32
CCOC(=O)c1c(NC(=S)N2CCOCC2)sc2c1CCN(C(=O)OCC)C2 | -1.31
COc1cccc(CNC(=O)Cc2csc(NC(=O)Nc3ccccc3OC)n2)c1 | 10.6
Cc1cccc(Oc2ccc(C(=O)NC3CCSC3=O)cn2)c1C (centres unmarked) | -2.02
Cl.Fc1ccc(COc2ccc(Br)cc2CNCC2CCCO2)cc1 (centres unmarked) | -63.5
CCCc1ccc(OCC(=O)NNC(=O)c2cccnc2)cc1 | -10.9
CC1(C)Cc2cccc(OCC(=O)OCc3nnc(-c4ccccc4)o3)c2O1 | -7.37

SMILES | hERG current change (%, negative = inhibition) at 10uM [%]
COc1cccc(N2CCN(S(=O)(=O)c3ccc(CN4C(=O)c5cccnc5C4=O)cc3)CC2)c1 | 21.3
COc1ccc(CNC(=O)c2sc3nc4c(c(C(F)(F)F)c3c2N)CCC4)cc1OC | 10.2
S=c1[nH]nc(Cc2ccccc2)n1-c1cccc2ccccc12 | -1.43
CCSc1nnc(NC(=O)CCNS(=O)(=O)c2cc(Br)cnc2N)s1 | 0.00778
C/C(=N\NS(=O)(=O)c1ccc(Cl)cc1)c1ccc(O)cc1 | -25.9
CCC(C)NS(=O)(=O)c1ccc(OCC(=O)Nc2ccc3c(c2)OCO3)cc1 (centres unmarked) | 6.02
O=C(NC(NC(=S)N1CCOCC1)C(Cl)(Cl)Cl)c1ccc(Cl)cc1 (centres unmarked) | -28.5
O=S(=O)(c1ccccc1)c1cnn(-c2ccccc2)c1-c1ccc(Cl)cc1 | -0.722
CSCCC(NC(=O)COc1ccccc1)C(=O)N1CC(C)OC(C)C1 (centres unmarked) | -8.31
COc1ccc(CNC(=O)c2ccc(Br)o2)cc1 | 1.82
Cn1nc(SCC(=O)O)sc1=S | -3.5
CCCCn1nnnc1SCC(=O)NNC(=O)C1CCCCC1 | -1.79
NS(=O)(=O)c1ccc(CCNC(=O)/C=C/c2ccc([N+](=O)[O-])cc2)cc1 | -69.8
CCN1CCN(c2ccc(S(=O)(=O)N3CCCCC3)cc2NC(=O)/C=C/c2ccc(OC)c(OC)c2)CC1 | -31.4
CCN1C(=O)C(CC(=O)Nc2ccccc2)S/C1=N\c1ccccn1 (centres unmarked) | 15
CC1CCN(CCCn2c(=S)[nH]c3ccc(N4CCOCC4)cc3c2=O)CC1 | -18.3
CCOc1cc(C2C(C#N)=C(N)SC(N)=C2C#N)ccc1OCCN1CCOCC1 | -1.44
CCCCSC1=NN1c1nc(N)nc(C)c1CC | -25.8
Cc1ccc(CNc2cc(C(=O)O)ccc2Cl)s1 | 11.9
CCOc1cc2c(C#N)c(N3CCNCC3)nc(N)c2c(N)n1 | 5.41
O=C1CCC(=O)N1c1ccccc1 | 20.8
CCC(N=c1cc(-c2ccc(OC)cc2)oc2ccc(C)cc12)C(=O)O (centres unmarked) | -74.4
CC(C)C12CN3CC(C(C)C)(CN(C1)C3(C)C)C2=O | 13.4

SMILES | hERG current change (%, negative = inhibition) at 10uM [%]
COc1ccccc1C(=O)COC(=O)COc1cccc2c1OC(C)(C)C2 | 17.3
CCc1ccc(OS(=O)(=O)c2cn(C)c(=O)n(C)c2=O)cc1 | 4.65
CCOC(=O)C1CCCN(C(=O)c2cc(S(=O)(=O)N(C)C)ccc2N2CCCC2)C1 (centres unmarked) | -0.17
CCCc1cc(=O)oc2cc(C)cc(OC(C)C(=O)NCc3ccncc3)c12 (centres unmarked) | -69.5
COC(=O)c1ccc(C)c(NC(=O)CSc2nc3[nH]c(=O)cc(O)c3s2)c1 | 32.4
CC(=O)n1cc([C@@H]2C=C(C(=O)NCc3ccccc3)O[C@H](OCCCCO)C2)c2ccccc21 | -78.3
Cc1ccc(NC(=O)CCNC(=O)c2ccc(Cl)cc2)cc1F | 9.19
CC(=O)C1=C(O)C(=O)N(c2ccc(Br)cn2)C1c1ccccc1[N+](=O)[O-] (centres unmarked) | 20.2
CC(Cc1cccs1)NC(=S)Nc1ccccc1 (centres unmarked) | -17
COc1cc(C(=O)NC2CCCCC2)ccc1OCc1ccc(Cl)cc1Cl | 10.9
COc1ccccc1N1CCN(C(=O)Cn2nc3n(C)c4ccccc4n3c(=O)c2=O)CC1 | -7.89
COc1cccc(-n2ccnc2SCC(=O)Nc2nccs2)c1 | -6.22
COc1ccccc1-n1c(SCC(=O)NC(C)(C)C)nc(O)c(Cc2ccccc2)c1=O | 5.22
Cc1ccc(NC(=O)Cn2cc(S(=O)(=O)c3ccc(C)cc3)c(=O)c3cc(F)ccc32)cc1 | -12.1
Cc1cc(C)cc(Nc2ccc(C(=O)O)cc2[N+](=O)[O-])c1 | 14.4
O=C(Nc1ccccc1)N1CCn2c(nc3ccccc32)C1 | -12.9
O=C(NCCc1ccc([N+](=O)[O-])cc1)c1ccccc1 | -11.7
Nc1ccc(N2CCOCC2)cc1C(F)(F)F | 22.2
O=C(Nc1cccc(Oc2ccc3c(c2)C(=O)NC3=O)c1)c1cccs1 | -17
COc1ccc2oc(C(=O)OCC(=O)NCCc3ccccc3)c(C)c2c1 | -3.25
